Data from publication PMC4336329 (PLoS ONE, 2015).
Screen size: about 310,000 compounds; about 2,200 (0.71%) showed an effect of 50% or more. Effects have a minus sign here. Some of the results follow.

target: human ether-à-go-go-related gene (hERG) potassium channel (human, UniProt Q12809); experiment: primary screen, population patch clamp on CHO cells stably expressing hERG
Sequence (Q12809 whole entry, looked up): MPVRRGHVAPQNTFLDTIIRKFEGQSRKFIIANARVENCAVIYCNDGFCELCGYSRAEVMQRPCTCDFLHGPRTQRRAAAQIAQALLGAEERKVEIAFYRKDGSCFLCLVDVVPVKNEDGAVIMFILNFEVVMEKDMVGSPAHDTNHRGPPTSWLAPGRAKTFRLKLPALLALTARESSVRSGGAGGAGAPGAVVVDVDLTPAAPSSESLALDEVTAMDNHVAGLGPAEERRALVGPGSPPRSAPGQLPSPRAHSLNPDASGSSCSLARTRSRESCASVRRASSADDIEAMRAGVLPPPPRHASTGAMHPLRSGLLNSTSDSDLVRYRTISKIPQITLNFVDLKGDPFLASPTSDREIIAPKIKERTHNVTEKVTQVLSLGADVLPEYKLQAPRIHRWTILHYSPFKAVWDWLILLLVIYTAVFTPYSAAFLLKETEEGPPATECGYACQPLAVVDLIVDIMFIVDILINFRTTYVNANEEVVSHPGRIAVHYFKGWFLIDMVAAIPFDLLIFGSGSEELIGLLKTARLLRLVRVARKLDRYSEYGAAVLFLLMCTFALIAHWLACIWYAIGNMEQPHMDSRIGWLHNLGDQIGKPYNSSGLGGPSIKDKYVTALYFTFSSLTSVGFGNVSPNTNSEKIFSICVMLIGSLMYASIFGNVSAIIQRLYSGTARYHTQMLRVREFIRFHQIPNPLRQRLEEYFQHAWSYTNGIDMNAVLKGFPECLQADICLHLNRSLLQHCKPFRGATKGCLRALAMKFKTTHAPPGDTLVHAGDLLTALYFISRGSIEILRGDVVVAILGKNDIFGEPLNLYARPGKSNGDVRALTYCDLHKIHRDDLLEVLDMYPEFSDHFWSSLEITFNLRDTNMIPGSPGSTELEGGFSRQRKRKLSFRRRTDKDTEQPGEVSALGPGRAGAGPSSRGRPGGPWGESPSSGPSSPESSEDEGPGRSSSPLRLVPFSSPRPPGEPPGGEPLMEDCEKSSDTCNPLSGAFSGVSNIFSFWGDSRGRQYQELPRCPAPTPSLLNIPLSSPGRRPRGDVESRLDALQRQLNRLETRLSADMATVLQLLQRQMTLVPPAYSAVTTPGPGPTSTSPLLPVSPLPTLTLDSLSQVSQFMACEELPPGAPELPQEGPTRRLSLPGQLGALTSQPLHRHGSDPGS

SMILES	hERG current change (%, negative = inhibition) at 1uM [%]
CCCN(C(=O)c1c(CC)noc1C)c1c(N)n(Cc2ccccc2)c(=O)[nH]c1=O	-5.22
F[B-](F)(F)F.OCCC[NH+]=c1cc(-c2ccccc2)oc2ccc(Cl)cc12	-78
CCOC(=O)C1=C(CN2CCOCC2)NC(=O)NC1c1cccc([N+](=O)[O-])c1 (stereo not shown)	-2.84
CC1CCN(c2ncnc3ccccc23)CC1.Cl	-12.3
C=CCNC(=O)CSc1nnc(-c2cccs2)o1	6.22
O=C(O)CSc1nc(-c2ccc(Cl)cc2)nc2c1oc1ccccc12	4.81
Cc1cc(C(=O)CN2C(=O)CCC2=O)c(C)n1Cc1ccccc1	1.09
COc1cccc(CNC(=O)C2CCCN(c3nn4c(=O)cc(C)nc4s3)C2)c1OC (stereo not shown)	12.3
Cc1ccc2nc(NNC(=O)c3ccc4c(c3)OCCO4)sc2c1	13.2
COCCOc1ccc(C(F)(F)F)cc1NC(=O)CN1C(=O)NC(C)(c2ccc3c(c2)OCO3)C1=O (stereo not shown)	12.9
NC(=O)COC(=O)C1c2ccccc2Oc2ccccc21	1.95
CCCCN(C)c1ccc([N+](=O)[O-])cc1	15.8
COC(=O)c1ccc(NC(=S)NCCC2=CCCCC2)cc1	6.38
C/C(=N\NC(=O)c1cc2c(s1)CCC(C)C2)c1ccc[nH]1 (stereo not shown)	11.3
O=C(NNc1c(Cl)cccc1Cl)c1c(F)cccc1Cl	16.1
O=C(Nc1nc2ccccc2c2nc3ccccc3n12)c1ccc(F)cc1	13.5
CCc1ccc(OC)c(S(=O)(=O)N2CCN(C(=O)c3ccco3)CC2)c1	11.7
COc1cc(NC(=O)c2cccnc2)ccc1-c1cc2ccccc2oc1=O	6.97
Nc1nonc1-n1nnc(C(=O)N/N=C/C2CC=CCC2)c1CSc1ccccc1 (stereo not shown)	6.46
COc1ccc(C(C)(C)C)cc1NC(=O)COC(=O)c1ccc([N+](=O)[O-])o1	13.3
CN1C(=O)N(CC(=O)NCc2ccc(Cl)cc2Cl)C(=O)C12CCCCC2	7.43
COc1ccc(-c2ccc([C@H]3[C@@H]4C=CCC[C@@]4(C)C(=O)N3Cc3ccccc3)c(F)c2)cc1	11.4
CCN(CC)C(=S)Nc1ccc([N+](=O)[O-])cc1	6.63

SMILES	hERG current change (%, negative = inhibition) at 1uM [%]
CCOC(=O)C(=O)/C(C#N)=C/Nc1ccccc1	12.1
CCCS(=O)(=O)c1nc(S(=O)(=O)c2ccc(C)cc2)c(NCc2ccccn2)s1	8.9
COC(=O)c1ccc([C@@H](O)[C@H](C)C(=O)CC(=O)OC(C)(C)C)cc1	6.21
Cc1ccc2nc(C)cc(N/N=C/c3cccc(O)c3)c2c1	12.7
O=C(C1CCN(S(=O)(=O)c2cc(Cl)ccc2Cl)CC1)N1CCOCC1	10.7
O=C(Cn1cc([N+](=O)[O-])ccc1=O)NCc1ccc(Cl)cc1Cl	1.3
CCOc1ccc(C(=O)NCc2ccccn2)cc1	15.5
COc1ccc(-c2cc(C(=O)O)no2)cc1	18.6
CC(=O)Nc1cccc(/C(C)=N/NC(=O)c2ccccc2Cl)c1	13.5
COc1ccc(S(=O)(=O)/C(C#N)=C/Nc2ccc(NC(C)=O)cc2)cc1	14.7
C=CCNC(=S)N1CCN(CCN=CC2=C(O)CC(c3ccco3)CC2=O)CC1 (stereo not shown)	-4.9
O=C(Cn1nnc2ccccc21)Nc1ccc(Cl)cn1	7.08
O=C(CCl)NC(=O)NC12CC3CC(CC(C3)C1)C2	9.11
COCCCNC(=O)/C(C#N)=C/c1c(N2CCN(c3cccc(Cl)c3)CC2)nc2c(C)cccn2c1=O	8.9
O=C1c2ccccc2C(=O)c2c1cccc2-n1nnc2ccccc21	8.53
Cc1ccc(-c2cccc(CN3CCN(C(C)C)C(CCO)C3)c2)o1 (stereo not shown)	16.8
COc1ccc2c(c1)CCc1c(C(=O)NCc3ccc(Cl)cc3)noc1-2	15.2
Cc1ccccc1NC(=O)CCCCC(=O)Nc1ccccc1C	12.7
CCC(=O)OC1(C)C(=O)C=C2C=C(c3ccsc3)OC=C2C1=O (stereo not shown)	9.93
Cc1cc(CN2CCN(CC(=O)Nc3cc(C(F)(F)F)ccc3-n3cncn3)CC2)no1	-36.4
C=C(C)CSc1nc2ncccc2[nH]1	5.54
COc1cc(C=C(C(C)=O)C(C)=O)ccc1O	18.1
COC(=O)c1cc2occc2n1Cc1nc(-c2ccc(Cl)cc2)oc1C	11.2
